± gives the standard deviation of the averaged measurements. This is one part of the list. Most values come without repeats; read them as rough.
The molecules below were run on SARS-CoV-2 nsp3 SARS-unique domain core (SUD-core, nsp3 residues 413-676) (assay: dissociation rate constant koff (BLI); higher = faster dissociation). Conditions: 100 µM; 25 °C.
Description: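 Primary BLI (Octet RED96e) screen of MedChemExpress Nucleotide Compound and Kinase Inhibitor libraries (1770 compounds) against biotinylated SARS-CoV-2 SUD-core on SSA biosensors. Each compound was tested once at 100 uM in PBS pH 7.4, 1% DMSO; 150 s association, 180 s dissociation, 25 C. Kd and koff are apparent values from single-concentration 1:1 fits. Only fits with full R^2 >= 0.9 are kept; fits at the software floor (<1e-12 M, <1e-7 /s) and placeholder values are excluded.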

| Compound | dissociation rate constant koff |
| --- | --- |
| Cn1cc(C2=C(c3cccc(N)c3)C(=O)NC2=O)c2ccccc21 | 0.404 s⁻¹ |
| C[C@H]1CN(C2COC2)CCN1c1ccc(Nc2cc(-c3ccnc(N4CCn5c(cc6c5CC(C)(C)C6)C4=O)c3CO)cn(C)c2=O)nc1 | 0.051 s⁻¹ |
| CC(C)=CCc1c(O)ccc(C(=O)/C=C/c2ccc(O)cc2)c1O | 0.0622 s⁻¹ |
| Nc1ncnc2c1c(-c1cccc(OCc3ccccc3)c1)cn2C1CC(CN2CCCC2)C1 (stereo not given) | 0.479 s⁻¹ |
| COc1ccc(C(OC[C@H]2O[C@@H](n3cnc4c(=O)[nH]cnc43)C[C@@H]2O)(c2ccccc2)c2ccc(OC)cc2)cc1 | 0.0837 s⁻¹ |
| CCCCNc1ncc(-c2ccc(CN3CCOCC3)cn2)c(NC2CCC(O)CC2)n1 (stereo not given) | 0.0929 s⁻¹ |
| CN1CC[C@@H](c2c(O)cc(O)c3c(=O)cc(-c4ccc(C(F)(F)F)cc4Cl)oc23)[C@@H]1CO | 0.581 s⁻¹ |
| CCc1cc2c(cc1-c1cnn(CC(=O)N(C)C)c1)C(C)(C)c1[nH]c3cc(C#N)ccc3c1C2=O | 0.307 s⁻¹ |
| COc1cc(OC)c(/C=C/S(=O)(=O)Cc2ccc(OC)c(O)c2)c(OC)c1 | 0.259 s⁻¹ |
| Nc1ccn([C@H]2CC[C@@H](CO)O2)c(=O)n1 | 0.0142 s⁻¹ |
| O=c1oc2ccccc2c(O)c1Cc1c(O)c2ccccc2oc1=O | 1.62 s⁻¹ |
| O=C(Nc1cn[nH]c1-c1nc2ccc(CN3CCOCC3)cc2[nH]1)NC1CC1 | 0.181 s⁻¹ |
| O=c1[nH]c2ccc(Cl)cc2c(N[C@@H]2CN3CCC2CC3)c1-c1nc2ccccc2[nH]1 | 0.396 s⁻¹ |
| CN(C)CCOc1ccc(-c2nc(-c3ccc4c(c3)CC/C4=N/O)c(-c3ccncc3)[nH]2)cc1 | 0.206 s⁻¹ |
| C=CC(=O)Nc1ccc2ncnc(Nc3ccc(OCc4cccc(F)c4)c(Cl)c3)c2c1 | 0.305 s⁻¹ |
| O=c1[nH]cnc2c1ncn2[C@H]1CC[C@@H](CO)O1 | 0.124 ± 0.14 s⁻¹ |
| N#Cc1ccnc(Nc2cc(C3CCN(C4COC4)CC3)cc(N3CCC(F)(F)C3)n2)c1 | 0.0846 s⁻¹ |
| C1=C/COCc2cc(ccc2OCCN2CCCC2)Nc2nccc(n2)-c2cccc(c2)COC/1 | 0.598 s⁻¹ |
| COc1ccc(C(OC[C@H]2O[C@@H](n3cc(C)c(=O)[nH]c3=O)C[C@@H]2OP(OCCC#N)N(C(C)C)C(C)C)(c2ccccc2)c2ccc(OC)cc2)cc1 (stereo not given in full) | 0.489 s⁻¹ |
| Nc1[nH]c(=O)ncc1F | 0.0102 s⁻¹ |

| Compound | dissociation rate constant koff |
| --- | --- |
| O=C(CCCCCn1cc(Nc2ncc(Cl)c(Nc3ccc(Cl)cc3)n2)cn1)NO | 0.412 s⁻¹ |
| CN1CCN(c2ccc3nc(-c4c(N)c5c(F)cccc5[nH]c4=O)[nH]c3c2)CC1 | 0.0135 s⁻¹ |
| O=C(O)c1cccc(CN2C(=O)/C(=C(\c3ccccc3)c3ccc(Cl)cc3)c3ccccc32)c1 | 0.123 s⁻¹ |
| CS(=O)(=O)N1CCN(Cc2cc3nc(-c4cccc5[nH]ncc45)nc(N4CCOCC4)c3s2)CC1 | 0.134 s⁻¹ |
| CCc1c(C(=O)NNC(=O)[C@@H](O)c2cc(F)cc(F)c2)ccc(O)c1C | 0.947 s⁻¹ |
| COc1ccc(C(OC[C@H]2O[C@@H](n3cnc4c(=O)[nH]c(NC(=O)C(C)C)nc43)C[C@@H]2O)(c2ccccc2)c2ccc(OC)cc2)cc1 | 0.448 s⁻¹ |
| O=C(NCCCNc1nc(Nc2cccc(NC(=O)N3CCCC3)c2)ncc1I)c1cccs1 | 0.506 s⁻¹ |
| N#Cc1cccc(-c2c[nH]c3ncnc(N4CCOCC4)c23)c1 | 1.39 s⁻¹ |
| COc1cc2nccc(Oc3ccc(NC(=O)c4cn(C(C)C)c(=O)n(-c5ccc(F)cc5)c4=O)cc3F)c2cc1OC | 0.109 s⁻¹ |
| CC(C)(C)C(=O)OCOP(=O)(COCCn1cnc2c(N)ncnc21)OCOC(=O)C(C)(C)C | 0.0114 s⁻¹ |
| CC(C)(C)c1nc(-c2cccc(NS(=O)(=O)c3c(F)cccc3F)c2F)c(-c2ccnc(N)n2)s1 | 0.73 s⁻¹ |
| Cc1cn([C@H]2C=C[C@@H](CO)O2)c(=O)[nH]c1=O | 0.0437 s⁻¹ |
| CCNC(=O)Nc1ccc(-c2nc(N3CCOC[C@@H]3C)c3c(n2)C(C)(C)S(=O)(=O)C3)cc1 | 0.803 s⁻¹ |
| O=C(NCCO)c1cccc(-c2cc(Nc3ccc(OC(F)(F)F)cc3)ncn2)c1 | 0.172 s⁻¹ |
| N#C/C(=C\c1ccc(O)c(O)c1)C(=O)N1CCc2ccccc21 | 0.186 s⁻¹ |
| O=C1NC(=O)[C@@H](c2cn3c4c(cccc24)CCC3)[C@@H]1c1c[nH]c2ccccc12 | 0.542 s⁻¹ |
| O=c1[nH]ccc2nc(-c3ccc(CN4CCC(c5nc(-c6ccccn6)n[nH]5)CC4)cc3)c(-c3ccccc3)cc12 | 0.0103 s⁻¹ |
| OCCN(CCO)c1ccc(C(c2ccc(Cl)cc2)c2ccc(N(CCO)CCO)cc2)cc1 | 0.136 s⁻¹ |
| COc1ccc(Cl)c(Nc2nc3ccccc3nc2NS(=O)(=O)c2cccc(NC(=O)C(C)(C)N)c2)c1 | 0.989 s⁻¹ |
| O=S(=O)(NCCNC/C=C/c1ccc(Br)cc1)c1cccc2cnccc12 | 14 s⁻¹ |

Reference: the supplement of paper PMC10326071
